{"source": "PubChem BioAssay AID1508623", "about": "(National Center for Advancing Translational Sciences (NCATS), 2021)", "note": "In all, about 48,000 compounds went through this assay and about 450 (0.94%) were called active. Not shown: some 19% with an inconclusive outcome. Calls follow the shape of the dose curve; as a rule, active = well fitted inhibition curve with a large enough effect; inconclusive = small, poorly fitted or top-dose-only effect; inactive = no such curve, though single readings can be large or run the other way. The list shows a part of the results."}
{"test": "Primary qHTS for Identification of Small Molecule Inhibitors of Huntingtin Promoter Activity; also: nearly all actives have a fitted effect of over 50% in size", "settings": "HEK293 HTT promoter firefly luciferase reporter (activity 0% = vehicle and -100% = no light), 24 h; series mostly up to 57.5 µM; activity change, negative = inhibition: at the top concentration", "how_it_was_run": "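HEK293 Fluc reporter, 2,500 cells/well, 24 h pre-culture; cpds up to 57.5 uM final, 24 h 37 degrees C; Dual-Glo, 10 min RT; normalized vehicle = 0%, zero RLU = -100%.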"}
{"smiles": "CCOc1ccc2nc(N3CCCC(C(=O)NCc4ccccc4OC)C3)sc2c1", "note": "(centres undefined)", "activity change, negative = inhibition": "inactive: 27.7%"}
{"smiles": "Cc1ccc(Cl)cc1NC(=O)C1CCN(c2nc3ccccc3n3cccc23)CC1", "activity change, negative = inhibition": "inactive: 0.876%"}
{"smiles": "CCCn1c2ccccc2c2cnn(CC(=O)NCCc3ccc(C)cc3)c(=O)c21", "activity change, negative = inhibition": "inactive: -9.19%"}
{"smiles": "CCOc1ccc(S(=O)(=O)Nc2cc(Cl)ccc2OC)c2cccnc12", "activity change, negative = inhibition": "inactive: -28.3%"}
{"smiles": "Cc1nc(C(=O)NCC(=O)O)c(O)c2ccc(Oc3ccccc3)cc12", "activity change, negative = inhibition": "inactive: 5.1%"}
{"smiles": "Cc1ccc(/C=C/c2onc(C)c2S(=O)(=O)N2CCC(C(=O)Nc3cc(F)ccc3F)CC2)cc1", "activity change, negative = inhibition": "inactive: -11%"}
{"smiles": "CC(=O)Nc1ccn(C2COC(COC(=O)c3ccccc3)O2)c(=O)n1", "note": "(centres undefined)", "activity change, negative = inhibition": "inactive: -9.35%"}
{"smiles": "COc1ccc(Nc2oc(/C=C/c3ccc(OC)c(OC)c3)nc2C#N)cc1", "activity change, negative = inhibition": "inactive: -3.83%"}
{"smiles": "COCCn1c(=O)[nH]c2cc(C(=O)Nc3cccc(C(C)=O)c3)ccc2c1=O", "activity change, negative = inhibition": "inactive: 0.186%"}
{"smiles": "CCc1nn(CC(=O)NCCCOC)c(=O)c2cc3ccccc3n12", "activity change, negative = inhibition": "inactive: 3.85%"}
{"smiles": "Cc1cc(C)c2oc(C(=O)Nc3ccc(S(=O)(=O)Nc4nccc(C)n4)cc3)cc(=O)c2c1", "activity change, negative = inhibition": "inactive: -20.6%"}
{"smiles": "Cc1cc(C)cc(-n2ccn(Cc3ccc(F)cc3)c(=O)c2=O)c1", "activity change, negative = inhibition": "inactive: -24.7%"}
{"smiles": "CCCn1c(CCC(=O)Nc2ccccc2OC)nc2cccnc21", "activity change, negative = inhibition": "inactive: -6.81%"}
{"smiles": "COc1ccc2oc(-c3cccc(NC(=O)c4sc5c([N+](=O)[O-])cccc5c4Cl)c3)nc2c1", "activity change, negative = inhibition": "inactive: -10.5%"}
{"smiles": "Cc1cccc(C)c1Nc1c(-c2ccc(O)cc2)nc2sccn12", "activity change, negative = inhibition": "inactive: -13.3%"}
{"smiles": "O=c1c2sc3ccccc3c2n(Cc2cccc(C(F)(F)F)c2)c(=O)n1Cc1ccc(F)cc1", "activity change, negative = inhibition": "inactive: -11.3%"}
{"smiles": "COc1ccc(NC(=O)CC2C(=O)N(c3cccc(OC)c3)C(=O)N2Cc2ccc3c(c2)OCO3)cc1", "note": "(centres undefined)", "activity change, negative = inhibition": "inactive: -6.14%"}
{"smiles": "COc1cccc2c1C(=O)c1c(O)c3c(c(O)c1C2=O)C[C@@](O)(C(=O)CO)C[C@@H]3O[C@H]1C[C@H](N)[C@H](O[C@@H]2CCCCO2)[C@H](C)O1", "activity change, negative = inhibition": "inactive: -28.6%"}
{"smiles": "Cc1ccc(CNC(=O)CCCN2C(=O)COc3ccc(C)cc32)cc1", "activity change, negative = inhibition": "inactive: -1.6%"}
{"smiles": "Cc1cccc(NC(=O)C(=O)NCCc2csc(-c3ccc(C(F)(F)F)cc3)n2)c1C", "activity change, negative = inhibition": "inactive: 4.42%"}
{"smiles": "O=C(CC1N=C2c3ccccc3N=C(SCC(=O)Nc3ccccc3F)N2C1=O)NCc1cccs1", "note": "(centres undefined)", "activity change, negative = inhibition": "inactive: 2.72%"}
{"smiles": "Cc1ccc(NC(=O)c2c(NC(=O)c3ccccc3)sc3c2CCC3)cc1", "activity change, negative = inhibition": "inactive: 20.4%"}
{"smiles": "CC1CCc2c(sc(NC(=O)c3cc(-c4ccc(F)cc4)on3)c2C(N)=O)C1", "note": "(centres undefined)", "activity change, negative = inhibition": "inactive: 0.39%"}
{"smiles": "Cc1ccc2sc(N(Cc3cccnc3)C(=O)C3COc4ccccc4O3)nc2c1C", "note": "(centres undefined)", "activity change, negative = inhibition": "inactive: -3.86%"}
{"smiles": "CCc1ccc(CN(C(=O)c2cc(=O)c3ccc(C)cc3o2)C2CCS(=O)(=O)C2)cc1", "note": "(centres undefined)", "activity change, negative = inhibition": "inactive: -20.4%"}
{"smiles": "CC(C)Cn1c(=O)c2sccc2n2c(CCCC(=O)NC3CCCCC3)nnc12", "activity change, negative = inhibition": "inactive: -16.5%"}
{"smiles": "COc1cccc(CNC(=O)CCCn2nc(C)c3c(C)n(-c4ccc(C)cc4)nc3c2=O)c1OC", "activity change, negative = inhibition": "inactive: -26%"}
{"smiles": "CCN(CC)CCNC(=O)c1ccc(-n2c(-c3ccccc3)cc3c2CCCC3)cc1", "activity change, negative = inhibition": "inactive: 9.68%"}
{"smiles": "COc1ccc(CNC(=O)Cn2nc(C)c3c(C)n(-c4ccccc4)nc3c2=O)cc1OC", "activity change, negative = inhibition": "inactive: -14.3%"}
{"smiles": "CCCCc1ccc(NC(=O)C2(C)Cc3ccccc3C(=O)O2)cc1", "note": "(centres undefined)", "activity change, negative = inhibition": "inactive: -21.2%"}
{"smiles": "CCc1ccc(C2CC(=O)Oc3c2c(=O)n(C)c2ccccc32)cc1", "note": "(centres undefined)", "activity change, negative = inhibition": "inactive: -17.3%"}
{"smiles": "COc1ccc(N(C)C(=O)c2cc(S(=O)(=O)N3CCc4ccccc43)cn2C)c(OC)c1", "activity change, negative = inhibition": "inactive: -27.1%"}
{"smiles": "Cc1cccc(-c2nc(C(N)=O)c3c(n2)n(-c2ccc4c(c2)OCO4)c(=O)n3C)c1", "activity change, negative = inhibition": "inactive: -3.9%"}
{"smiles": "Cc1cc(C)cc(NC(=O)Cn2cc(C(=O)c3ccccc3)c(=O)c3ccc(C)nc32)c1", "activity change, negative = inhibition": "inactive: 0.35%"}
{"smiles": "CCOC(=O)CSc1nc2ccc(NC(=O)COc3ccccc3C)cc2s1", "activity change, negative = inhibition": "inactive: 6.17%"}
{"smiles": "COC(=O)CN1C(=O)C(O)(CC(=O)c2ccc(F)cc2)c2ccccc21", "note": "(centres undefined)", "activity change, negative = inhibition": "inactive: -6.49% [at 11.5 µM]"}
{"smiles": "Cc1ccc(-n2c3nc(=O)[nH]c(=O)c-3cc3c(C)nn(-c4ccccc4)c32)c(C)c1", "activity change, negative = inhibition": "inactive: -6.81%"}
{"smiles": "Cc1ccc(Cl)cc1NC(=O)CCS(=O)(=O)c1ccc2c(c1)n(C)c(=O)c(=O)n2C", "activity change, negative = inhibition": "inactive: -5.53%"}
{"smiles": "O=C(Nc1ccc(Cl)cc1)c1cc2c(-c3ccccc3)nn(-c3ccccc3)c2s1", "activity change, negative = inhibition": "inactive: -3.09%"}
{"smiles": "Cc1nn(CC(=O)N2CCCCC2)c(=O)c2cc3occc3n12", "activity change, negative = inhibition": "inactive: -4.38%"}
{"smiles": "CC(C)Cn1cc(NC(=O)NCc2ccccc2Cl)c2ccccc2c1=O", "activity change, negative = inhibition": "inactive: -6.42%"}
{"smiles": "CC(NC(=O)C1CCN(S(=O)(=O)c2ccc3nc4c(c(C(=O)O)c3c2)CCCC4)CC1)c1ccccc1", "note": "(centres undefined)", "activity change, negative = inhibition": "inactive: -14.8%"}
{"smiles": "Cc1ccc(NC(=O)CCS(=O)(=O)c2cc(Br)cc3c2N(C(=O)C2CC2)CC3)cc1", "activity change, negative = inhibition": "inactive: -9.46%"}
{"smiles": "O=C(CSc1oc(-c2ccccc2)nc1S(=O)(=O)c1ccccc1)c1ccccc1", "activity change, negative = inhibition": "inactive: -28.7%"}
{"smiles": "Cc1ccc2nc(NCCc3ccccc3)c3nncn3c2c1", "activity change, negative = inhibition": "inactive: 8.04%"}
{"smiles": "Cc1nn(-c2ccccc2)c(OC(=O)C(C)(C)C)c1Sc1ccccc1", "activity change, negative = inhibition": "inactive: -3.25%"}
{"smiles": "O=c1oc2ccccc2cc1-c1cn2cc(Cc3ccccc3F)sc2n1", "activity change, negative = inhibition": "inactive: 29%"}
{"smiles": "CCn1c(=O)cc(OCC(=O)Nc2ccc(C)c(F)c2)c2ccccc21", "activity change, negative = inhibition": "inactive: -6.17%"}
{"smiles": "COCCn1c(=N)c(C(=O)NCc2ccco2)cc2c(=O)n3cc(C)ccc3nc21", "activity change, negative = inhibition": "inactive: -3.69%"}
{"smiles": "COC(=O)c1cc(NS(=O)(=O)c2cc(Br)cc3c2N(C(C)=O)CC3)cc(C(=O)OC)c1", "activity change, negative = inhibition": "inactive: -5.12%"}
{"smiles": "Cc1nnc(NC(=O)C(=O)c2cc(C)n(-c3ccc(C)c(C)c3)c2C)s1", "activity change, negative = inhibition": "inactive: -19.9%"}
{"smiles": "Cc1cccc(-n2c(=O)c3c(c4cc(C)ccc4n3C)n(CC(=O)Nc3ccc(C)cc3C)c2=O)c1", "activity change, negative = inhibition": "inactive: -15.9%"}
{"smiles": "Cc1ccc(C(=O)Nc2ccc3oc(-c4ccncc4)nc3c2)c(Cl)c1", "activity change, negative = inhibition": "inactive: -17.3%"}
{"smiles": "CCc1ccc(-n2c(=O)c3cccnc3n2CC(=O)Nc2ccccc2C(F)(F)F)cc1", "activity change, negative = inhibition": "inactive: -20.2%"}
{"smiles": "COc1ccc(-c2ccc(CCC(=O)O)n2CC(=O)Nc2cccc(C(F)(F)F)c2)cc1", "activity change, negative = inhibition": "inactive: -26.2%"}
{"smiles": "COc1ccc(N2CCN(C(=O)c3ccc4c(Cl)c5c(nc4c3)CCCC5)CC2)cc1", "activity change, negative = inhibition": "inactive: -3.83%"}
{"smiles": "CCOC(=O)c1c(NC(C)=O)c2c3c(sc2n1Cc1nc(-c2cccc(C)c2)oc1C)CCCC3", "activity change, negative = inhibition": "inactive: -11.3%"}
{"smiles": "CCOc1ccc(-c2cc(C(=O)NCCc3ccc(Cl)cc3)c3ccccc3n2)cc1", "activity change, negative = inhibition": "inactive: -15.6%"}
{"smiles": "COc1cc(-c2cc(OC)c3c(C)oc(C)c3c(=O)c2)ccc1OC(=O)c1ccccc1F", "activity change, negative = inhibition": "inactive: 2.27%"}
